{
  "source": "paper PMC9232578",
  "binders": {"B1": {"name": "SCO1 (endogenous) (protein, UniProt O75880 68-301)", "chain": "STARPPPPWSQKGPGDSTRPSKPGPVSWKSLAITFAIGGALLAGMKHVKKEKAEKLEKERQRHIGKPLLGGPFSLTTHTGERKTDKDYLGQWLLIYFGFTHCPDVCPEELEKMIQVVDEIDSITTLPDLTPLFISIDPERDTKEAIANYVKEFSPKLVGLTGTREEVDQVARAYRVYYSPGPKDEDEDYIVDHTIIMYLIGPDGEFLDYFGQNKRKGEIAASIATHMRPYRKKS"}, "B2": {"name": "SCO2 (endogenous) (protein, UniProt O43819 42-266)", "chain": "GPAETGGQGQPQGPGLRTRLLITGLFGAGLGGAWLALRAEKERLQQQKRTEALRQAAVGQGDFHLLDHRGRARCKADFRGQWVLMYFGFTHCPDICPDELEKLVQVVRQLEAEPGLPPVQPVFITVDPERDDVEAMARYVQDFHPRLLGLTGSTKQVAQASHSYRVYYNAGPKDEDQDYIVDHSIAIYLLNPDGLFTDYYGRSRSAEQISDSVRRHMAAFRSVLS"}, "B3": {"name": "COX16 (endogenous) (protein, UniProt Q9P0S2 1-106)", "chain": "MFAPAVMRAFRKNKTLGYGVPMLLLIVGGSFGLREFSQIRYDAVKSKMDPELEKKLKENKISLESEYEKIKDSKFDDWKNIRGPRPWEDPDLLQGRNPESLKTKTT"}, "B4": {"name": "COX19 (endogenous) (protein, UniProt Q49B96 1-90)", "chain": "MSTAMNFGTKSFQPRPPDKGSFPLDHLGECKSFKEKFMKCLHNNNFENALCRKESKEYLECRMERKLMLQEPLEKLGFGDLTSGKSEAKK"}, "B5": {"name": "COA6 (endogenous) (protein, UniProt Q5JTJ3 1-125)", "chain": "MGPGGPLLSPSRGFLLCKTGWHSNRLLGDCGPHTPVSTALSFIAVGMAAPSMKERQVCWGARDEYWKCLDENLEDASQCKKLRSSFESSCPQQWIKYFDKRRDYLKFKEKFEAGQFEPSETTAKS"}, "B6": {"name": "COX17 (endogenous) (protein, UniProt Q14061 1-63)", "chain": "MPGLVDSNPAPPESQEKKPLKPCCACPETKKARDACIIEKGEEHCGHLIEAHKECMRALGFKI"}, "B7": {"name": "PET191 (endogenous) (protein, UniProt Q86WW8 1-74)", "chain": "MPKYYEDKPQGGACAGLKEDLGACLLQSDCVVQEGKSPRQCLKEGYCNSLKYAFFECKRSVLDNRARFRGRKGY"}, "B8": {"name": "COA3 (protein, UniProt Q9Y2R0 1-106)", "chain": "MASSGAGDPLDSKRGEAPFAQRIDPTREKLTPEQLHSMRQAELAQWQKVLPRRRTRNIVTGLGIGALVLAIYGYTFYSISQERFLDELEDEAKAARARALARASGS"}},
  "note": "Numbering of substitutions follows the chain as printed. Results are given in words; binding and its absence hold for the method and conditions named. In cells and extracts the contact can be indirect. Some entries that bind do so weakly or less than the wild type. Tags and fused reporters may be left off the sequences shown.",
  "data": [
    {"molecular_target": "T1, PET191-FLAG (human) (UniProt Q86WW8)", "T1 sequence": "B7 chain", "experiment": "co-IP; as a6 (no crosslinker), PET191-FLAG expressed in COX11-KO cells", "values": [
      {"binder": "B1", "binding": "no binding (condition: in COX11-KO cells)"},
      {"binder": "B2", "binding": "no binding (condition: in COX11-KO cells)"}
    ]},
    {"molecular_target": "T2, COA6-FLAG (human) (UniProt Q5JTJ3)", "T2 sequence": "B5 chain", "experiment": "co-IP; stable interactions: mitochondria without crosslinker (DMSO vehicle), extracted in PBS, 0.4% DDM, anti-FLAG beads 4 h at 4 C, five washes in PBS 0.05% DDM, immunoblotting; for COX11-COX19 also after pre-incubation of mitochondria with 5 mM GSH", "values": [
      {"binder": "B3", "binding": "binds"},
      {"binder": "B2", "binding": "binds"}
    ]},
    {"molecular_target": "T3, COX11-FLAG (human) (UniProt Q9Y6N1)", "T3 sequence": "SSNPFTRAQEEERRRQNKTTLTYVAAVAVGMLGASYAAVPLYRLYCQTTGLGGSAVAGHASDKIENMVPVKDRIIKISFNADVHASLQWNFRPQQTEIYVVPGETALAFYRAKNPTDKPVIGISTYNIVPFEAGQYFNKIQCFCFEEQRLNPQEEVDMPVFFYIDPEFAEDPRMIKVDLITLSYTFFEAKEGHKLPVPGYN", "experiment": "co-IP; stable interactions: mitochondria without crosslinker (DMSO vehicle), extracted in PBS, 0.4% DDM, anti-FLAG beads 4 h at 4 C, five washes in PBS 0.05% DDM, immunoblotting; for COX11-COX19 also after pre-incubation of mitochondria with 5 mM GSH", "values": [
      {"binder": "B1", "binding": "binds"},
      {"binder": "B2", "binding": "binds"},
      {"binder": "B4", "binding": "binds"}
    ]},
    {"molecular_target": "T4, COX17-FLAG (human) (UniProt Q14061)", "T4 sequence": "B6 chain", "experiment": "co-IP; stable interactions: mitochondria without crosslinker (DMSO vehicle), extracted in PBS, 0.4% DDM, anti-FLAG beads 4 h at 4 C, five washes in PBS 0.05% DDM, immunoblotting; for COX11-COX19 also after pre-incubation of mitochondria with 5 mM GSH", "values": [
      {"binder": "B1", "binding": "binds"},
      {"binder": "B2", "binding": "binds"}
    ]},
    {"molecular_target": "T1, PET191-FLAG (human)", "experiment": "co-IP; stable interactions: mitochondria without crosslinker (DMSO vehicle), extracted in PBS, 0.4% DDM, anti-FLAG beads 4 h at 4 C, five washes in PBS 0.05% DDM, immunoblotting; for COX11-COX19 also after pre-incubation of mitochondria with 5 mM GSH", "values": [
      {"binder": "B1", "binding": "binds"},
      {"binder": "B3", "binding": "binds"},
      {"binder": "B2", "binding": "binds"}
    ]},
    {"molecular_target": "T5, COX11 C219D-FLAG (human) (UniProt Q9Y6N1)", "T5 sequence": "T3 sequence with C144D", "experiment": "cross-linking + co-IP; transient interactions: mitochondria treated with 1 mM DSP 1.5 h at 4 C (DMSO as vehicle control), quenched with 10 mM Tris-HCl, extracted in PBS, 0.4% DDM, anti-FLAG beads, immunoblotting for 13 candidate proteins; also in KO backgrounds and after chloramphenicol treatment", "values": [
      {"binder": "B1", "binding": "binds"},
      {"binder": "B5", "binding": "binds"},
      {"binder": "B3", "binding": "binds"},
      {"binder": "B6", "binding": "binds"},
      {"binder": "B7", "binding": "binds"},
      {"binder": "B8", "binding": "binds"},
      {"binder": "B2", "binding": "binds"}
    ]},
    {"molecular_target": "T3, COX11-FLAG (human)", "experiment": "cross-linking + co-IP; transient interactions: mitochondria treated with 1 mM DSP 1.5 h at 4 C (DMSO as vehicle control), quenched with 10 mM Tris-HCl, extracted in PBS, 0.4% DDM, anti-FLAG beads, immunoblotting for 13 candidate proteins; also in KO backgrounds and after chloramphenicol treatment", "values": [
      {"binder": "B1", "binding": "binds"},
      {"binder": "B5", "binding": "binds"},
      {"binder": "B3", "binding": "binds"},
      {"binder": "B7", "binding": "binds"},
      {"binder": "B8", "binding": "binds"},
      {"binder": "B2", "binding": "binds"},
      {"binder": "B4", "binding": "binds"}
    ]},
    {"molecular_target": "T6, COX16-FLAG (human) (UniProt Q9P0S2)", "T6 sequence": "B3 chain", "experiment": "cross-linking + co-IP; transient interactions: mitochondria treated with 1 mM DSP 1.5 h at 4 C (DMSO as vehicle control), quenched with 10 mM Tris-HCl, extracted in PBS, 0.4% DDM, anti-FLAG beads, immunoblotting for 13 candidate proteins; also in KO backgrounds and after chloramphenicol treatment", "values": [
      {"binder": "B1", "binding": "binds"},
      {"binder": "B5", "binding": "binds"},
      {"binder": "B6", "binding": "binds"},
      {"binder": "B7", "binding": "binds"},
      {"binder": "B8", "binding": "binds"},
      {"binder": "B2", "binding": "binds"},
      {"binder": "B4", "binding": "binds"}
    ]},
    {"molecular_target": "T4, COX17-FLAG (human)", "experiment": "cross-linking + co-IP; transient interactions: mitochondria treated with 1 mM DSP 1.5 h at 4 C (DMSO as vehicle control), quenched with 10 mM Tris-HCl, extracted in PBS, 0.4% DDM, anti-FLAG beads, immunoblotting for 13 candidate proteins; also in KO backgrounds and after chloramphenicol treatment", "values": [
      {"binder": "B1", "binding": "binds"},
      {"binder": "B2", "binding": "binds"}
    ]},
    {"molecular_target": "T7, PET191(C30A, C41A)-FLAG (human) (UniProt Q86WW8)", "T7 sequence": "B7 chain with C30A, C41A", "experiment": "cross-linking + co-IP; transient interactions: mitochondria treated with 1 mM DSP 1.5 h at 4 C (DMSO as vehicle control), quenched with 10 mM Tris-HCl, extracted in PBS, 0.4% DDM, anti-FLAG beads, immunoblotting for 13 candidate proteins; also in KO backgrounds and after chloramphenicol treatment", "values": [
      {"binder": "B1", "binding": "binds"},
      {"binder": "B3", "binding": "binds"},
      {"binder": "B8", "binding": "binds"},
      {"binder": "B2", "binding": "binds"},
      {"binder": "B4", "binding": "binds"}
    ]},
    {"molecular_target": "T1, PET191-FLAG (human)", "experiment": "cross-linking + co-IP; transient interactions: mitochondria treated with 1 mM DSP 1.5 h at 4 C (DMSO as vehicle control), quenched with 10 mM Tris-HCl, extracted in PBS, 0.4% DDM, anti-FLAG beads, immunoblotting for 13 candidate proteins; also in KO backgrounds and after chloramphenicol treatment", "values": [
      {"binder": "B1", "binding": "binds"},
      {"binder": "B3", "binding": "binds"},
      {"binder": "B8", "binding": "binds"},
      {"binder": "B2", "binding": "binds"},
      {"binder": "B4", "binding": "binds"}
    ]},
    {"molecular_target": "T8, SCO1-FLAG (human) (UniProt O75880)", "T8 sequence": "B1 chain", "experiment": "cross-linking + co-IP; transient interactions: mitochondria treated with 1 mM DSP 1.5 h at 4 C (DMSO as vehicle control), quenched with 10 mM Tris-HCl, extracted in PBS, 0.4% DDM, anti-FLAG beads, immunoblotting for 13 candidate proteins; also in KO backgrounds and after chloramphenicol treatment", "values": [
      {"binder": "B3", "binding": "binds"},
      {"binder": "B6", "binding": "binds"},
      {"binder": "B7", "binding": "binds"},
      {"binder": "B8", "binding": "binds"},
      {"binder": "B2", "binding": "binds"},
      {"binder": "B4", "binding": "binds"}
    ]},
    {"molecular_target": "T9, SCO2-FLAG (human) (UniProt O43819)", "T9 sequence": "B2 chain", "experiment": "cross-linking + co-IP; transient interactions: mitochondria treated with 1 mM DSP 1.5 h at 4 C (DMSO as vehicle control), quenched with 10 mM Tris-HCl, extracted in PBS, 0.4% DDM, anti-FLAG beads, immunoblotting for 13 candidate proteins; also in KO backgrounds and after chloramphenicol treatment", "values": [
      {"binder": "B1", "binding": "binds"},
      {"binder": "B5", "binding": "binds"},
      {"binder": "B3", "binding": "binds"},
      {"binder": "B6", "binding": "binds"},
      {"binder": "B7", "binding": "binds"},
      {"binder": "B8", "binding": "binds"},
      {"binder": "B4", "binding": "binds"}
    ]}
  ]
}
